PubChem BioAssay AID504332 (National Center for Advancing Translational Sciences (NCATS), 2011)
Screen size: about 350,000 compounds; about 31,000 (8.9%) were called active. Inconclusive results, whose numbers are uncertain, are shown with a selection of clear calls. Calls come from the whole dose curve; as a rule, active = well fitted inhibition curve with a large enough effect; inconclusive = small, poorly fitted or top-dose-only effect; inactive = no such curve, though single readings can be large or run the other way. Potencies beside an inconclusive call are fits to weak or partial responses and may not hold up.

target: Histone-lysine N-methyltransferase EHMT2 (Homo sapiens) (UniProt Q96KQ7); experiment: qHTS Assay for Inhibitors of Histone Lysine Methyltransferase G9a; details: G9a H3K9 monomethylation, AlphaScreen, 2 h; activity, negative = inhibition: at 59 µM (top of the series) unless noted; note: nearly all actives have a fitted effect of over 75% in size
How it was run: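 AlphaScreen detection with an anti-monomethyl H3K9 antibody quantified product after a 2 h room-temperature reaction containing 500 nM biotinylated H3K9 peptide, 20 µM SAM and 20 nM enzyme, which had been preincubated 15 min with compound.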
% is set by controls: 0 for no effect and ±100 for the full control effect; potency is the fitted concentration of half-maximal effect; tags give direction and shape of the fitted curve.

UniProt Q96KQ7, sequence (Q96KQ7 whole entry, looked up): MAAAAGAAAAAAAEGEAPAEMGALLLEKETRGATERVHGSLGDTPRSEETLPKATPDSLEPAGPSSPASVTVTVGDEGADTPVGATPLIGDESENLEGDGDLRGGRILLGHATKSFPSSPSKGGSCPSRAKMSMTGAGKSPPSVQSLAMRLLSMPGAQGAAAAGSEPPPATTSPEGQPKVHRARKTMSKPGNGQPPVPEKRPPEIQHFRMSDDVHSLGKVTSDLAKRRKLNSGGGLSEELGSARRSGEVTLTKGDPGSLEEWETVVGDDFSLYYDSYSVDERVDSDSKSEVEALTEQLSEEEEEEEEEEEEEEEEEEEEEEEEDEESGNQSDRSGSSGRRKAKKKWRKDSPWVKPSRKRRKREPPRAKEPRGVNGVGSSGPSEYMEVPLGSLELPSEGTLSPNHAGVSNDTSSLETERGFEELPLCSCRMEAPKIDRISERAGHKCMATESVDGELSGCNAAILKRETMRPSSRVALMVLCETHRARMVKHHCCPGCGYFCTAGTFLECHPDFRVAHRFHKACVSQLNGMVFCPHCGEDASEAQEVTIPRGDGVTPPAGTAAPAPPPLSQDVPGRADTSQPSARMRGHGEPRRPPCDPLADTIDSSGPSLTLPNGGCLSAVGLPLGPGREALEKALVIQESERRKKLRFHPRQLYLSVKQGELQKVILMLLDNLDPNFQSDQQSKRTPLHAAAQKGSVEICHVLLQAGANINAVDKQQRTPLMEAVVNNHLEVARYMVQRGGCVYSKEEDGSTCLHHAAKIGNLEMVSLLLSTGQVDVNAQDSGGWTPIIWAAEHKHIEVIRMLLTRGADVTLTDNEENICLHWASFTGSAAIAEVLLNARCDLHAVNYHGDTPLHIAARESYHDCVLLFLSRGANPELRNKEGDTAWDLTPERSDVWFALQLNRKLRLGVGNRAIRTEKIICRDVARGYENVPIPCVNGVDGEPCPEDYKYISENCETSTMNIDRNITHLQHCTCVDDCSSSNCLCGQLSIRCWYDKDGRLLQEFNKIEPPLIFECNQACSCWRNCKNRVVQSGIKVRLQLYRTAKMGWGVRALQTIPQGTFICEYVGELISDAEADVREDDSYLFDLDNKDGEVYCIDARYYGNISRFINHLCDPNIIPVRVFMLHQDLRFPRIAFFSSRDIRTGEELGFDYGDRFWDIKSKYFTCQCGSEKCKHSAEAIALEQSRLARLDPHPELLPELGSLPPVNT

How did the Potency turn out when `O=c1cc(-c2c(O)c3ccccc3n(Cc3ccccc3)c2=O)[nH][nH]1` was run?
Its Potency is active: 44.7 µM.

Which Potency does the source give for `COc1ccccc1NC(=O)c1ccc(-c2nn(C)c(=O)c3ccccc23)cc1` here?
Its Potency is inconclusive: 28.2 µM [inhibitor, partial curve, poor fit].

For `CC1CN(CCCCN2C(=O)c3ccccc3C2=O)CC(C)O1` (configuration not stated), which Potency is on record?
The Potency was active: 3.16 µM.

With `COc1cc(NC(=O)CN2C(=O)C(=O)N(CC(C)C)C2=O)cc(OC)c1` as the compound, how does the Potency read?
Its Potency is inconclusive: 79.4 µM [inhibitor, single point].

With `COc1ccc(N(CCC#N)C(=O)/C(C#N)=C\c2cccs2)cc1` as the compound, how does the Potency read?
The Potency was inconclusive: 89.1 µM [inhibitor, single point].

How did the Potency turn out when `Cc1cccc(C(c2sc3nc(-c4ccco4)nn3c2O)N2CCN(c3ccccc3F)CC2)c1` (configuration not stated) was run?
Its Potency is inconclusive: 8.91 µM [inhibitor, partial curve].

For `CC(/C=C/c1ccccc1F)=N\NC(=O)C(C)C`, which Potency is on record?
The Potency was inconclusive: 31.6 µM [inhibitor, single point].

For `CC(C)C(C(=O)NCC1CCCO1)N(C(=O)CNS(=O)(=O)c1ccccc1)c1ccc(F)cc1` (configuration not stated), which “activity, negative = inhibition” value is on record?
Its value is inactive: 33% [at 102 µM].

For `CCNC(=S)Nc1scc(-c2ccccc2)c1C(=O)OCC`, which Potency is on record?
Its Potency is inconclusive: 31.6 µM [inhibitor, single point].

`Cc1ccc2nc(-c3ccccc3)cc(C(=O)NCC(c3ccco3)N(C)C)c2c1` (configuration not stated) was tested. Which Potency did it give?
Its Potency is inconclusive: 44.7 µM [inhibitor, partial curve].

Which “activity, negative = inhibition” value does the source give for `O=C(COC(=O)C1CC2CCCC(C1)C2=O)NNC(=O)c1ccccc1F` (configuration not stated) here?
The value was inactive: -4.13% [at 102 µM].

How did the Potency turn out when `O=C(CN1CCOCC1)N1CCCc2ccccc21` was run?
Its Potency is inconclusive: 20 µM [inhibitor, full curve, poor fit].

`CCCOc1ccc(NC(=O)OC2CCN(C)CC2)cc1` was tested. Which Potency did it give?
The Potency was inconclusive: 89.1 µM [inhibitor, single point].

Which Potency does the source give for `CCOc1cc(/C=C2\C(=O)NN(c3ccccc3)C2=O)cc([N+](=O)[O-])c1O` here?
The Potency was active: 31.6 µM.

How did the Potency turn out when `O=C(O)c1ccc(CNCc2c(Cl)cccc2Cl)cc1` was run?
The Potency was inconclusive: 89.1 µM [inhibitor, partial curve, poor fit].

Which Potency does the source give for `COCCCN(Cc1ccco1)C(=O)Cn1ncc2c(=O)oc3ccc(C)cc3c21` here?
The Potency was inconclusive: 70.8 µM [inhibitor, partial curve].

Which “activity, negative = inhibition” value does the source give for `O=C(Oc1ccc(F)cc1)c1nc(SCc2ccc(F)cc2)ncc1Cl` here?
The value was inactive: 49.4%.

Which Potency does the source give for `COc1ccc(NC(=O)CCS(=O)(=O)c2ccc3c(c2)oc(=O)n3C)cc1OC` here?
Its Potency is “inactive”.

With `COc1cc(C2N(c3ccc(F)cc3)C(=O)C3CCCN32)cc(OC)c1OC` (configuration not stated) as the compound, how does the Potency read?
Its Potency is inconclusive: 89.1 µM [inhibitor, single point].

With `NC(Cc1c[nH]c2ccccc12)C(=O)NCc1ccco1` (configuration not stated) as the compound, how does the Potency read?
The Potency was inconclusive: 56.2 µM [inhibitor, partial curve].

For `CCOc1ccc(N=Nc2c(C)[nH]n(-c3ccccc3)c2=O)cc1`, which activity, negative = inhibition is on record?
The activity, negative = inhibition was inactive: 0.575% [at 0.501 µM].

Which “activity, negative = inhibition” value does the source give for `COc1cc2nc(Nc3cccc(C)c3)nc(N)c2cc1OC` here?
The value was inactive: -46.7%.

Which Potency does the source give for `O=C(/C=C/c1ccco1)N1CCN(S(=O)(=O)/C=C/c2ccccc2)CC1` here?
Its Potency is active: 50.1 µM.

Which Potency does the source give for `O=C(CNS(=O)(=O)c1ccc(Br)cc1Cl)OCC(=O)c1ccc[nH]1` here?
The Potency was inconclusive: 79.4 µM [inhibitor, single point].

With `O=C(CN1CCOc2ccccc21)NCc1ccco1` as the compound, how does the Potency read?
Its Potency is inconclusive: 0.316 µM [inhibitor, full curve, poor fit].

For `CN(c1ccccc1)S(=O)(=O)c1ccc2[nH]c(=O)oc2c1`, which Potency is on record?
Its Potency is inconclusive: 89.1 µM [inhibitor, single point].

`COC(=O)c1cc2oc(C)cc2n1CC(=O)N(C)c1ccccc1` was tested. Which Potency did it give?
Its Potency is inconclusive: 5.62 µM [inhibitor, single point].

Which Potency does the source give for `Oc1c(C(c2ccccc2F)N2CCN(c3ccccc3F)CC2)sc2nc(-c3ccco3)nn12` (configuration not stated) here?
The Potency was inconclusive: 2.51 µM [inhibitor, partial curve, poor fit].

`O=S(=O)(Nc1nc2ccccc2s1)c1cnc(Cl)c(Br)c1` was tested. Which Potency did it give?
Its Potency is inconclusive: 56.2 µM [inhibitor, partial curve].

How did the Potency turn out when `Cc1cccc(CC(=O)NCCn2c(C)cc3ccccc32)c1` was run?
Its Potency is inconclusive: 56.2 µM [inhibitor, single point].

With `CCOC(=O)CSC1=Nc2ccccc2C2=NC(CCC(=O)NCc3ccc(OC)cc3)C(=O)N12` (configuration not stated) as the compound, how does the “activity, negative = inhibition” value read?
Its value is inactive: 18.4%.

`Nc1c(C(=O)Nc2ccc(Cl)c(Cl)c2)sc2nc(-c3cccnc3)ccc12` was tested. Which Potency did it give?
The Potency was inconclusive: 15.8 µM [inhibitor, single point].

Which Potency does the source give for `CCn1c(=O)cc(C(=O)OC)sc1=Nc1ccc(F)c(F)c1` here?
Its Potency is inconclusive: 89.1 µM [inhibitor, single point].

Which Potency does the source give for `CC(C)[C@@H](C(=O)O)N(Cc1cccc(CN([C@H](C(=O)O)C(C)C)S(C)(=O)=O)c1)S(C)(=O)=O` here?
The Potency was inconclusive: 89.1 µM [inhibitor, single point].

How did the Potency turn out when `CCc1nnc(NC(=O)C2Cc3ccccc3CN2S(=O)(=O)c2c(C)c(C)cc(C)c2C)s1` (configuration not stated) was run?
The Potency was inconclusive: 3.55 µM [inhibitor, single point].

For `NC(=O)CN1C(=O)NC2(CCCc3sccc32)C1=O` (configuration not stated), which Potency is on record?
Its Potency is inconclusive: 0.891 µM [inhibitor, partial curve, poor fit].

Which Potency does the source give for `COc1cc2[nH]c3c(=O)n4c(nc3c2cc1OC)SCCC4` here?
The Potency was inconclusive: 50.1 µM [inhibitor, partial curve, poor fit].

Which “activity, negative = inhibition” value does the source give for `Cc1cc(OCCn2c(CCNC(=O)C3CCCCC3)nc3ccccc32)ccc1Cl` here?
Its value is inactive: 7.24%.

For `CC(C)Oc1ccc(S(=O)(=O)N2CCOCC2)cc1NC(=O)C1CCC1`, which Potency is on record?
The Potency was inconclusive: 44.7 µM [inhibitor, partial curve, poor fit].

Which Potency does the source give for `Cc1cc(C)c(NC(=O)CSc2nccn2-c2cccc(Cl)c2)c(C)c1` here?
The Potency was inconclusive: 12.6 µM [inhibitor, partial curve].

For `CCn1nc(C)c(/C=N/NC(=S)Nc2ccc(Cl)cc2Cl)c1C`, which “activity, negative = inhibition” value is on record?
Its value is inactive: 10.3% [at 102 µM].

Which Potency does the source give for `CC1CCCN(C(=S)Nc2ccc(S(=O)(=O)N3CCCCC3)cc2)C1` (configuration not stated) here?
Its Potency is inconclusive: 56.2 µM [inhibitor, partial curve, poor fit].
